Data from PubChem BioAssay (NCATS).
This is one part of the list. Further columns of the screen follow, without active or inactive calls. For some of these results: Most of these compounds were active or inconclusive in the main read-out, so they are no random draw. Potencies come from curve fits of mixed quality, noted in brackets.

Columns and labels:
[1] = qHTS drug screen for cell cycle checkpoint inhibitors in PARPi-resistant BRCA-mutant ovarian cancer cell lines. (AID 1963452); conditions: PEO1/OlaR viability, CellTiter-Glo luminescence, 96 h
Outline: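 PEO1, PEO4 and PEO1/OlaR ovarian cancer cells, 600 per well, exposed 96 h at 37C to a dilution series. Viability read by CellTiter-Glo luminescence, normalized to DMSO and empty wells; activity summarized as Z-AUC.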

[2] = qHTS for identification of novel therapeutic agents for treatment of microphthalmiaassociated transcription factor (MiT) renal cell carcinoma (RCC) (AID 1963991); conditions: CellTiter-Glo, 48 h; for z-score: stronger effect = lower value;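 as to z-score: curves scaled with 100% = DMSO viability and 0% = empty wells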
Outline: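 UOK109/UOK124/UOK145 (TFE3 fusions, three partners); 500 cells/well; MIPE v4.0, 1912 cpds, 11 conc.; 48 h, 37 C; CellTiter-Glo, 15 min RT; lum. Norm.: DMSO 100%, empty 0%.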

[3] = measured here: PEO1 parental viability
[4] = TFE3-RCC UOK109 viability, measured here: UOK109 Z-AUC
[5] = TFE3-RCC viability, measured here: UOK124 Z-AUC
[6] = TFE3-RCC viability, measured here: UOK124 cell viability
[7] = TFE3-RCC viability, measured here: UOK145 Z-AUC
[8] = TFE3-RCC viability, measured here: UOK145 cell viability
Tags tell the direction and shape of the fitted curve.

| Compound | AC50 [1, 3] | AC50 ([1]; measured here: PEO4 viability) | z-score [2, 4] | z-score [2, 5] | AC50 [2, 6] | z-score [2, 7] | AC50 [2, 8] |
| --- | --- | --- | --- | --- | --- | --- | --- |
| O=C(NCCCNc1nc(Nc2cccc(NC(=O)N3CCCC3)c2)ncc1I)c1cccs1 | 6.16 µM [falling, partial curve] | 6.16 µM [falling, partial curve] | 0.0198 | -0.931 | 18.7 µM [falling, partial curve] | -0.409 | 18.7 µM [falling, partial curve] |
| CC[C@@H]([C@H](C)O)n1ncn(-c2ccc(N3CCN(c4ccc(OCC5CO[C@@](Cn6cncn6)(c6ccc(F)cc6F)C5)cc4)CC3)cc2)c1=O (stereo partly drawn) | 4.36 µM [falling, partial curve] | 21.9 µM [falling, single point] | 0.0483 | -0.0344 | 14.8 µM [falling, partial curve] | 0.017 | 20.9 µM [falling, partial curve] |
| CNC(=O)c1c(F)cccc1Nc1nc(Nc2cc3c(cc2OC)CCN3C(=O)CN(C)C)nc2[nH]ccc12 | 17.4 µM [falling, single point] | 8.71 µM [falling, partial curve] | 1 | -1.2 | 20.9 µM [falling, partial curve] | 0.203 | 20.9 µM [falling, partial curve] |
| COc1cc(N2CCC(N3CCN(C)CC3)CC2)ccc1Nc1ncnc(Nc2ccccc2S(=O)(=O)C(C)C)n1 | 15.5 µM [falling, single point] | 19.5 µM [falling, partial curve] | -1.65 | -0.244 | 18.7 µM [falling, partial curve] | -0.836 | 10.5 µM [falling, full curve] |
